According to PubChem BioAssay (NCATS):
Inconclusive means that the source gave no clear call. Such entries were picked first, then a sample of the others. No potency is given beside an inconclusive call; the fits are too rough. Activity calls are given as the source filed them. Calls come from the whole dose curve; as a rule, active = well fitted cell-killing curve with a large enough effect; inconclusive = small, poorly fitted or top-dose-only effect, or effect the other way; inactive = no such curve, though single readings can be large or run the other way.

Assay: qHTS of pediatric cancer cell lines to identify multiple opportunities for drug repurposing: Confirmatory screen for NB1643 cells (AID 1347109); note: nearly all actives have a fitted effect of over 45% in size
Details: NB1643 neuroblastoma cell viability; series mostly up to 45.9 µM
Text: Drug repurposing or repositioning has been offered as a strategy for drug development in oncology programs. This approach has special potential for childhood cancers and other rare or orphan diseases, where the expected return on new drug development has been a disincentive to pharmaceuticals.
In this project we exploit the poly-pharmacology of drugs to discover new indications via phenotypic screening of a panel of 19 well-characterized cell lines derived from solid tumors seen in children and adolescents. The goal is to identify approved drugs with previously unrecognized anticancer properties that has the potential to reveal new mechanisms and biological processes involved in carcinogenesis or drug resistance. We employed a titration-based paradigm (quantitative high-throughput screening or qHTS), where all compounds were tested at multiple concentrations for their effect on cell viability. Concentration-response curves (CRCs) were derived directly from the primary screen, and both potency and efficacy values were used to identify compounds with robust bioactivity profiles. We screened the NIH Chemical Genomics Center (NCGC) Pharmaceutical Collection (NPC) and Mechanism Interrogation Plate (MIPE) small molecule collections of approved and investigational compounds against these cell lines; and measured metabolically active cells after 48 hours of compound treatment as a proxy for cell viability.
Assay Submitter: Nathalia J. Martinez, National Center for Advancing Translational Sciences, National Institutes of Health, Rockville, MD, USA; email: natalia.martinez@nih.gov
[1] Shen, M et al. Quantitative high-throughput phenotypic screening of pediatric cancer cell lines identifies multiple opportunities for drug repurposing. Oncotarget 2017 Dec 19;9(4):4758-4772. PMID 29435139.
The cells were obtained from University of North Carolina (UNC), Pediatric Preclinical Testing Program (PPT), and Coriell Institute (CI).
qHTS cell viability assay:
Cells were assayed in growth media at a density of 500-1,000 cells/well. Five microliters of cells were dispensed into 1,536-well, white, solid-bottom, TC-treated plates (Greiner Bio One) using a multidrop dispenser and incubated at 37 degrees C, 5% CO2, under a humidified atmosphere for 5 hours. Twenty-three nanoliters of compounds and controls (neutral control DMSO or positive control bortezomib at final concentration of 2.3 µM) were subsequently transferred by Kalypsys pintool. For primary screens, the MIPE collection was tested at 11-point dilutions (final concentrations range from 0.78 nM to 46 µM) and the NPC collection at 8-point dilutions (final concentrations range from 0.59 nM to 46 µM). Compounds tested in follow-up screens were assayed at 11-point dilutions. Cells were incubated for 48 hours, followed by addition of 3 µL of CellTiter-Glo (Promega). After a 15 min incubation at room temperature, samples were analyzed for luminescence intensity using a ViewLux High-throughput CCD imager equipped with clear filters.
Potency is the fitted concentration of half-maximal effect; tags give direction and shape of the fitted curve.

Which Potency does the source give for `Cn1nnc2c(C(N)=O)ncn2c1=O` here?
The Potency was “inactive”.

Which Potency does the source give for `COc1ncc(-c2ccc3nccc(-c4ccnnc4)c3c2)cc1NS(=O)(=O)c1ccc(F)cc1F` here?
The Potency was active: 0.465 µM.

For `CNCc1ccc(-c2[nH]c3cc(F)cc4c3c2CCNC4=O)cc1`, which Potency is on record?
The Potency was inconclusive [cytotoxic, full curve].

For `CCCC(=O)O[C@]1(C(=O)CCl)[C@@H](C)C[C@H]2[C@@H]3CCC4=CC(=O)C=C[C@]4(C)[C@@]3(F)C(=O)C[C@@]21C`, which Potency is on record?
The Potency was “inactive”.

With `OC(CN1CCC(Cc2ccc(F)cc2)CC1)c1ccc(Cl)cc1` (stereo not given) as the compound, how does the Potency read?
Its Potency is inconclusive [rising, partial curve, poor fit].

Which Potency does the source give for `CN(C(Cc1ccc(OS(=O)(=O)c2cccc3cnccc23)cc1)C(=O)N1CCN(c2ccccc2)CC1)S(=O)(=O)c1cccc2cnccc12` (stereo not given) here?
Its Potency is inconclusive [cytotoxic, full curve, poor fit].

Which Potency does the source give for `Cc1nc(NC(=O)N2CCC[C@@H]2C(N)=O)sc1-c1ccnc(C(C)(C)C(F)(F)F)c1` here?
Its Potency is inconclusive [cytotoxic, partial curve].

For `CC(=O)Oc1cc2c(s1)CCN(C(C(=O)C1CC1)c1ccccc1F)C2` (stereo not given), which Potency is on record?
Its Potency is “inactive”.

For `CC(C)(C(=O)NCC(F)(F)C(F)(F)F)C(=O)N[C@@H]1C(=O)Nc2ccccc2-c2ccccc21`, which Potency is on record?
Its Potency is “inactive”.

For `CNS(=O)(=O)CCc1ccc2[nH]cc(C3CCN(C)CC3)c2c1`, which Potency is on record?
Its Potency is “inactive”.

For `Cc1oncc1C(=O)Nc1ccc(C(F)(F)F)cc1`, which Potency is on record?
The Potency was “inactive”.

For `CCN(CC)CCNC(=O)c1cc(Cl)c(N)cc1OC`, which Potency is on record?
Its Potency is “inactive”.

Which Potency does the source give for `CCC1(c2ccccc2)C(=O)NCNC1=O` here?
Its Potency is inconclusive [rising, full curve].

With `OC[C@H]1O[C@@H](n2cnc3c2NC=NC[C@@H]3O)C[C@H]1O` as the compound, how does the Potency read?
Its Potency is inconclusive [rising, full curve, poor fit].

For `CC1=C(CO)C(=O)O[C@@H]([C@@H](C)[C@H]2CC[C@H]3[C@@H]4C[C@H]5O[C@]56[C@@H](O)C=CC(=O)[C@]6(C)[C@@H]4CC[C@]23C)C1`, which Potency is on record?
Its Potency is inconclusive [cytotoxic, full curve, poor fit].

With `CC(=O)Nc1ccc([C@H](C)C(=O)Nc2ncc(C(C)C)s2)cc1` as the compound, how does the Potency read?
Its Potency is inconclusive [cytotoxic, full curve, poor fit].

For `COC(=O)Nc1nc2ccc(Sc3ccccc3)cc2[nH]1`, which Potency is on record?
Its Potency is inconclusive [cytotoxic, full curve].

Which Potency does the source give for `O=C(Nc1ccc([N+](=O)[O-])cc1Cl)c1cc(Cl)ccc1O` here?
Its Potency is active: 1.62 µM.

With `COc1cc2nc(-c3ccc(N4CCN(C)CC4)cc3)nc(NCCN3CCOCC3)c2cc1OC` as the compound, how does the Potency read?
Its Potency is inconclusive [cytotoxic, full curve, poor fit].

For `Nc1nc2ccc(OC(F)(F)F)cc2s1`, which Potency is on record?
The Potency was inconclusive [cytotoxic, partial curve].

Which Potency does the source give for `Cc1[nH]c(C=C2C(=O)Nc3ccccc32)c(C)c1CCC(=O)O` here?
Its Potency is “inactive”.

For `COc1ccc(-c2coc3cc(O)cc(O)c3c2=O)cc1`, which Potency is on record?
Its Potency is inconclusive [cytotoxic, single point].

Which Potency does the source give for `O=C(Nc1cc2cc[nH]c2cn1)c1ccccc1` here?
The Potency was active: 10.4 µM.

With `CC(C=CC1=C(C)CCCC1(C)C)=CC=CC(C)=CC(=O)O` as the compound, how does the Potency read?
The Potency was inconclusive [cytotoxic, single point].

For `CCCCCCCCCCCCOCCOCCOCCOCCOCCOCCOCCOCCOCCO`, which Potency is on record?
The Potency was “inactive”.

With `CO[C@H]1C=CC=C(C)C(=O)NC2=CC(=O)C(NCCN(C)C)=C(C[C@@H](C)C[C@H](OC)[C@@H](O)[C@@H](C)C=C(C)[C@@H]1OC(N)=O)C2=O` as the compound, how does the Potency read?
The Potency was inconclusive [cytotoxic, partial curve, poor fit].

Which Potency does the source give for `COc1cccc2c1C(=O)c1c(O)c3c(c(O)c1C2=O)C[C@@](O)(C(=O)CO)C[C@@H]3O[C@H]1C[C@H](N)[C@H](O[C@@H]2CCCCO2)[C@H](C)O1` here?
Its Potency is inconclusive [cytotoxic, full curve, poor fit].

Which Potency does the source give for `C=C(c1ccc(C(=O)O)cc1)c1cc2c(cc1C)C(C)(C)CCC2(C)C` here?
The Potency was “inactive”.

With `C=CC(=O)Nc1cc2c(Nc3ccc(F)c(Cl)c3)ncnc2cc1C#CC(C)(C)N1CCN(C)CC1` as the compound, how does the Potency read?
Its Potency is active: 5.37 µM.

For `CC1=C[C@@H]2[C@@H]([C@@H](O)C[C@@]3(C)[C@H]2C[C@@H](C)[C@]3(O)C(=O)CO)[C@@]2(C)Cc3cnn(-c4ccccc4)c3C=C12`, which Potency is on record?
The Potency was inconclusive [cytotoxic, single point].

With `NCCCNCCSP(=O)(O)O` as the compound, how does the Potency read?
The Potency was inconclusive [cytotoxic, single point].

Which Potency does the source give for `C[C@H]1C[C@H]2[C@@H]3CCC4=CC(=O)C=C[C@]4(C)[C@@]3(Cl)[C@@H](O)C[C@]2(C)[C@@]1(O)C(=O)CO` here?
The Potency was “inactive”.

Which Potency does the source give for `O=C(c1ccc(F)c(F)c1Nc1ccc(I)cc1F)N1CC(O)([C@H]2CCCCN2)C1` here?
The Potency was inconclusive [cytotoxic, single point].

With `COC(=O)Nc1nc2ccc(C(=O)C3CC3)cc2[nH]1` as the compound, how does the Potency read?
Its Potency is inconclusive [cytotoxic, full curve].

Which Potency does the source give for `CN(c1ncccc1CNc1nc(Nc2ccc3c(c2)CC(=O)N3)ncc1C(F)(F)F)S(C)(=O)=O` here?
The Potency was inconclusive [cytotoxic, full curve].

With `O=C1c2c(O)ccc(O)c2C(=O)c2c(NCCNCCO)ccc(NCCNCCO)c21` as the compound, how does the Potency read?
Its Potency is active: 0.369 µM.

Which Potency does the source give for `O=C(C=CC=Cc1ccc2c(c1)OCO2)N1CCCCC1` here?
Its Potency is inconclusive [cytotoxic, single point].

For `Nc1ccc([N+](=O)[O-])cc1O`, which Potency is on record?
The Potency was “inactive”.

With `CO[C@H]1C[C@@H]2CC[C@@H](C)[C@@](O)(O2)C(=O)C(=O)N2CCCC[C@@H]2C(=O)O[C@H]([C@H](C)C[C@@H]2CC[C@H](OCCO)[C@H](OC)C2)CC(=O)[C@H](C)C=C(C)[C@@H](O)[C@@H](OC)C(=O)[C@H](C)C[C@H](C)C=CC=CC=C1C` as the compound, how does the Potency read?
Its Potency is inconclusive [cytotoxic, partial curve, poor fit].

For `CCC(C)SSc1ncc[nH]1` (stereo not given), which Potency is on record?
Its Potency is active: 18.5 µM.
